Test results as given in publication PMC12136788.
Some of the results follow.

T1: UNK ZnF1-3 (human, UniProt Q9C0B0 31-174)
T1 sequence: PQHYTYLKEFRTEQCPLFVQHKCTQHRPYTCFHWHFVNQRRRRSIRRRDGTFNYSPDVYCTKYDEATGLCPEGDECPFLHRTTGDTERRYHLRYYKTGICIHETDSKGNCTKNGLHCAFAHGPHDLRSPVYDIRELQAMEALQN

B1: chr11:111487033:111487034:+_ENSG00000170145_ENST00000304987|hu_hu|FALSE|FALSE (ssRNA)
RNA: GGGAGUUCUACAGUCCGACGAUCCAUUACCUGAUAAAGUUUGAUUAUGUGAGGGUGGUCUAACAUUUUCAUUAUUUGUACUUCUCGGUAGAUUUUCUCAAGGUUCACUGCAUCCAGCUGAGACUUAUCGAUUAUUUUUAUUGCCAACAGAGGAUUGAGCAUCA
B2: 122831585_122840759_262_3pUTR_ENSG00000125676_ENST00000245838|human|control|control (ssRNA)
RNA: GGGAGUUCUACAGUCCGACGAUCCAAUUUGUCUCAAUGUCUAAUAUGCAGAAUACAUCAGCAAGAAUGGAGGGCAUAUCCUCACGAAAUUCACUAAUGUCACUAAGAACAUUAGAUGCCUGUUCAUGCUUUAGAUUUCCUUUACAACAGAGGAUUGAGCAUCA
B3: chr16:94664741:94664742:+_ENSMUSG00000040785_ENSMUST00000117648|mus_hu|mus_mus_mus_hu_False|78_78 (ssRNA)
RNA: GGGAGUUCUACAGUCCGACGAUCUGGUACUGAUCUUGGUAGCUGAUAUUCAGGAGAAAUGUUGGCCAAGGGUGUAUAUAUGCUGGUGUACUGGGGCAAACCUGGUAACACGUUUAUGUAUGCUGGCGGUGUCUGGGUGAUAUCCAACAGAGGAUUGAGCAUCA
B4: chr13:98020659:98020660:+_ENSMUSG00000041773_ENSMUST00000041623|mus_hu|motif|central (ssRNA)
RNA: GGGAGUUCUACAGUCCGACGAUCACAAUUACAAGACAAGGACUAGAUCACAGGUUUGUUCAUUCAUAUUUAAACCAUGUGCGGCUUGCACCAAAAAUCCCACCCCCCUCCCUCGCCCCUUUCCUUCAUGUCCAGUUAGAGCAUCAACAGAGGAUUGAGCAUCA
B5: chr5:145543945:145543946:-_ENSG00000133706_ENST00000545646|hu_hu|hu_hu_hu_mus_True|1_48 (ssRNA)
RNA: GGGAGUUCUACAGUCCGACGAUCCUGAACGGCCAGUGGUGGGAAAUAAUCAAGCCAGUGCUCUGCUUCAGAAAACUUCACUAUGUCUUCAUCAGACAGCCCAAGGGAUUUCAUAAUGUCCCACUGGUACUUAGAAGAUCCAGCCAACAGAGGAUUGAGCAUCA
B6: chr18:52893488:52893489:-_ENSG00000196628_ENST00000354452|hu_hu|hu_hu_hu_mus_True|38_38 (ssRNA)
RNA: GGGAGUUCUACAGUCCGACGAUCUAUUUAGACCAUUUCCGCGGAGUUAUGGCAUUUACUCAGUGCUGAUAGGUGGAAAAACUACUUCAACAGGGAUUUUUUUUUUUCUUAAUACAUGCCAAGAUUGUGUGGCUGUCAAAACAGCAACAGAGGAUUGAGCAUCA
B7: chrX:71549762:71549763:+_ENSMUSG00000019087_ENSMUST00000019231|mus_mus|mus_mus_mus_hu_False|1_58 (ssRNA)
RNA: GGGAGUUCUACAGUCCGACGAUCAAACCCGUGUACUUCUUAUUGUUAGCACAACAUCACCAGAAAACGAUAACGACAGCUAAGCUGGACAGACAGUUAAGUAGUACUUCCACACUCCCAAACUCAGGGAGCCCUAUAGUUCAUCAACAGAGGAUUGAGCAUCA
B8: 29164335_29165192_1745_CDS_ENSG00000163811_ENST00000407426|human|control|control (ssRNA)
RNA: GGGAGUUCUACAGUCCGACGAUCCUCUGAUGCUGUUACUUGUGUAAUUAGAAGAAUAAGCUUUCCAUGAAGGUGUGAAAGUUUCUGAAAAGUUUUGACUCUGCUUUCCAUUAACUGGUAGAGUGUCCCCAGCUGGGGUACCAGCAACAGAGGAUUGAGCAUCA
B9: 59845268_59847144_1439_CDS_ENSMUSG00000035469_ENSMUST00000043227|mouse|control|control (ssRNA)
RNA: GGGAGUUCUACAGUCCGACGAUCACUAUCAAAUUCUUUCUUCAGUGACUCUGCAACUGUUAAAAAGUCUUCAUGCUCUACAGACAGGAGGCGCCAUGAGACAGCCGGGGUGCCAAAGCAGGCAAACACGUCAUCGGUGCAGCACAACAGAGGAUUGAGCAUCA
B10: chr1:58468927:58468928:-_ENSMUSG00000026034_ENSMUST00000148330|mus_mus|mus_mus_mus_hu_False|28_88 (ssRNA)
RNA: GGGAGUUCUACAGUCCGACGAUCAAUUACUGAAAAAGAUGUUCAUUUAUUUGGUUUUGUACUUAAUGAACCAAAUUACCCAAACAAAAUAAACAUGGCAAUAUAAAAAGCUAUACAAUUUACAAAGCUGUACAAAAUAACUUACAACAGAGGAUUGAGCAUCA
B11: chr4:124323795:124323796:+_ENSG00000164056_ENST00000339241|hu_mus|FALSE|FALSE (ssRNA)
RNA: GGGAGUUCUACAGUCCGACGAUCCCACUCCUAUUGAGGCCCAUCCAAGGCAGGAGAGACUCGAGAAGAAAAUCUGCCUCUAAUACCAACAGCCAAAGUUUGGAAGCUAGACAUUCCGCGGAGGUCCAACCCACCUCCAGAAGUCAACAGAGGAUUGAGCAUCA
B12: chr18:45374997:45374998:-_ENSG00000175387_ENST00000586040|hu_hu|FALSE|FALSE (ssRNA)
RNA: GGGAGUUCUACAGUCCGACGAUCUGAGGGCUGUGAUGCAUGGAAGGUUUCUCCAACCCUCUGAUUUAAUUCAUAAUAUGCUAUCGAACACCAAAAUGCAGGUUCUGAGUAAGUAACUGGCUGUAAAUCCAAGCUAUGAUUAACCAACAGAGGAUUGAGCAUCA
B13: chr1:68170538:68170539:-_ENSG00000172380_ENST00000370982|hu_hu|motif|central (ssRNA)
RNA: GGGAGUUCUACAGUCCGACGAUCUUAGGAUACUCUUUACUUUUUGUACAAUAACGAUAUGAAAGGAAUUUUUUAUUCGGCCGGUACACAGCUCAAAAUAAAGGUAUAACUUCUGGAACUGAGAAACUGAUGGUAUGGAGAGAGCAACAGAGGAUUGAGCAUCA
B14: chr13:100201707:100201708:-_ENSMUSG00000052727_ENSMUST00000064762|mus_mus|motif|central (ssRNA)
RNA: GGGAGUUCUACAGUCCGACGAUCACUGACGUCUAUUUGUGUUGGAGAUACAUCUCCUCCCAAUUUCCUUUCAUCCAAAGCGGGAGCUGAUUGAGAACUCAUGGUUUCAACAUCACUGGUUUUCUUUUCUGGACCAAAGUCUUCCAACAGAGGAUUGAGCAUCA
B15: 48025950_48026070_549_CDS_ENSG00000116062_ENST00000540021|human|control|control (ssRNA)
RNA: GGGAGUUCUACAGUCCGACGAUCCCUAGAGCUUUUCCUUUUAAGAGAGCCAUUUCCAGUCACCAUUCUCUUCCGCUUUCGAGCAACUUUGACAGGGCUGUUCAGGCCUUCACUCUCACUAUCCCCCACUCCACUGCUUAUUUCCAACAGAGGAUUGAGCAUCA
B16: chr17:37088456:37088457:-_ENSMUSG00000036398_ENSMUST00000040402|mus_mus|motif|central (ssRNA)
RNA: GGGAGUUCUACAGUCCGACGAUCGUAACCGUUGUCUCAGUGACGGUCUCACUUAUCCCGGCCCCUGUCUCCGCCAUGGCGGAAGCGAAAAGCGAGAAAGCGGGAUGAGACACCCUUUCCUUUUUCUGAGCCUCAGAGAUCUAACAACAGAGGAUUGAGCAUCA
B17: chr10:120833061:120833062:-_ENSG00000107581_ENST00000369144|perfect_dup|FALSE|FALSE (ssRNA)
RNA: GGGAGUUCUACAGUCCGACGAUCCUGAGAUUCUUCUUUAGCAGCUUCAGUUUUUUCCUCUGCCAUUUUCAAAUAUGCCCUAACAACAUCCUCCAGAGAUUUUAUGUUCACCUGUUGACAAAUGUUCUUAUACUGGUAUAACCCCAACAGAGGAUUGAGCAUCA
B18: chr11:88578658:88578659:-_ENSMUSG00000069769_ENSMUST00000107909|perfect_dup|motif|central (ssRNA)
RNA: GGGAGUUCUACAGUCCGACGAUCGGAGCGUUUCGUAGUGGGAUCUCUCAUGACCAUACAUUCUCUAAUUUCUCCAAAUUUGCGGAAAUAGUCUCUAAGGCUAUCUGGUGAGGUCUGCCAGCUCAGUCCACCGAUAAACAUUUUCAACAGAGGAUUGAGCAUCA
B19: chr1:121442827:121442828:-_ENSMUSG00000026383_ENSMUST00000052404|mus_mus|motif|central (ssRNA)
RNA: GGGAGUUCUACAGUCCGACGAUCAAACAACAAAUGAACAUGAUACCUGCCAAAUGAAAAGACAAGAAGCUUUCUUAGAAACGGUGUUCCCAGGUGUAGUGGCAUAGCCUUUAAUGAAGCACUCAGGAGGCAGAGGCAGGAGGACAACAGAGGAUUGAGCAUCA
B20: 209119718_209119838_79_3pUTR_ENSG00000138413_ENST00000345146|human|control|control (ssRNA)
RNA: GGGAGUUCUACAGUCCGACGAUCGACUCACAACCACAGCCUGGCAAUCCCAAACCGGACUCCCAGUGCCUCCGCUUCUGAAGUAGACUCUGCAGAAACCCGGGACCACAGGGUAGGUCCGAGCUUUUCCUCUUCCCGGCUUUGCAACAGAGGAUUGAGCAUCA
B21: 131447145_131447996_338_3pUTR_ENSMUSG00000028911_ENSMUST00000053819|mouse|control|control (ssRNA)
RNA: GGGAGUUCUACAGUCCGACGAUCCUGCGUCCCGAGCCGUAGCUGCCAUCCCGCCGCGGGCCUCGAGCGUGCUCAACAAUGACUCGCUCGCCACACAGGUCUUUGCCGUUCAGUUCAUAAACAGCAUCGUCUGCAUCACGCAGACAACAGAGGAUUGAGCAUCA
B22: chr8:30643436:30643437:-_ENSG00000104695_ENST00000221138|hu_hu|motif|central (ssRNA)
RNA: GGGAGUUCUACAGUCCGACGAUCUUUUCUUAAAAAUAAAACUCCAACUCUAUUAAUCCAUGCCAGUUAAACACUAUAACGGAAAUUUCCAAAUAAGCGCAAAAGGAGAUGAAGCAGUUAGUUACCUUUUUUGCUUGAACAGUCCAACAGAGGAUUGAGCAUCA

What follows are binders tested against T1, UNK ZnF1-3 (assay: nsRBNS (natural sequence RNA bind-n-seq); RBNS binding buffer (assumed for nsRBNS): 25 mM Tris pH 7.5, 150 mM KCl, 3 mM MgCl2, 0.01% Triton X-100, 500 ug/ml BSA, 20 U/ml SUPERase-In, 4 C; UNK is unkempt and MSI1 is Musashi-1; names of the RNAs are library labels; protein concentration not given here; high values mean tight binding).
Work on B1 yielded a binding signal of 0.869 enrichment R.
In the case of B2, the binding signal is reported as 0.826 enrichment R.
With B3 the binding signal was 0.946 enrichment R.
For B4, the binding signal was 1.12 enrichment R.
B5 showed a binding signal of 1.3 enrichment R.
B6 showed a binding signal of 1.16 enrichment R.
B7 showed a binding signal of 1.18 enrichment R.
B8 showed a binding signal of 0.926 enrichment R.
B9 was tested, and the binding signal was 1.44 enrichment R.
Binder B10 has a binding signal of 0.432 enrichment R.
Work on B11 yielded a binding signal of 1.34 enrichment R.
Binder B12 has a binding signal of 1.11 enrichment R.
Binder B13 has a binding signal of 1.29 enrichment R.
B14 gave a binding signal of 0.376 enrichment R.
For B15, the binding signal was 0.761 enrichment R.
Work on B16 yielded a binding signal of 0.692 enrichment R.
B17 showed a binding signal of 0.835 enrichment R.
For B18, the binding signal was 0.875 enrichment R.
For B19, the binding signal was 1.5 enrichment R.
B20 showed a binding signal of 0.535 enrichment R.
B21 showed a binding signal of 0.763 enrichment R.
For B22, the binding signal was 1.04 enrichment R.
